# In PubChem BioAssay AID445 (National Center for Advancing Translational Sciences (NCATS), 2006):
# Where “and” joins values, the source holds several entries; their conditions need not be identical. Identical values can stand only once. Hit rate of the full screen: of about 110,000 compounds, about 40 (0.04%) were called active. The inconclusive results got no clear call from the source; some entries with a clear call stand among them for comparison. The call rests on the fitted dose curve; in most records, active means well fitted curve in the direction sought with a large enough effect in the signal ratio (not every such curve was filed as active); inconclusive means small, poorly fitted or top-dose-only effect, or a change in a side signal; inactive means flat fitted curve, though single readings scatter; the % refers to the signal ratio. A potency beside an inconclusive call is a rough fit, not a confirmed value.
# Test: IkB Signaling;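 on IkBa stabilization activation: 0% = basal untreated cells and 100% = reference inhibitor full response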
# Conditions: ABC-DLBCL IkBa-CBG/CBR dual luciferase ratio (green luciferase fused to IkBa over red control in OCI-Ly3 lymphoma cells), 4 h; IkBa stabilization activation: at 57.1 µM (top of the series), scaled: untreated 0%, proteasome inhibitor 100% unless noted
# In short: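 Luminescence ratio of IκBα-fused green versus native red beetle luciferase in OCI-Ly3 cells, 4 h post-doxycycline with compound; red signal alone, scaled from basal (0%) to zero light (-100%), flagged nonspecific or cytotoxic effects.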
# Potency means the concentration at half of the fitted maximal effect.
SMILES,IkBa stabilization activation,Potency
C[C@@H](Cc1ccc2c(c1)OC(C(=O)O)(C(=O)O)O2)NC[C@H](O)c1cccc(Cl)c1,inactive,–
CC(C)C#N,inactive,–
CCC(=NCc1ccc2c(c1)OCO2)c1c(O)n(C)c(=O)n(C)c1=O,inconclusive: 7.05% [signal inhibitor],–
NC[C@@H](O)CSP(=O)(O)O,"inactive: -0.268% [at 11.4 µM, scaled: untreated 0%, proteasome inhibitor 100%]",–
N#Cc1ccccc1Cn1cc(C(=O)C2CC2)c2ccccc21,inactive,–
CCCN(CCC)[C@@H]1CCc2c(OC)cccc2[C@@H]1C,inactive,–
Cn1nc(-c2ccc(OCC(=O)N3CCN(Cc4ccccc4)CC3)cc2)c2ccccc2c1=O,inconclusive: -3.02% [signal inhibitor],–
CN1[C@@H]2CC[C@H]1CC(OC1c3ccccc3CCc3ccccc31)C2 (stereo not given in full),inactive,–
O=C(O)[C@H]1CCN1,inactive,–
CN(C)C(=S)SSC(=S)N(C)C,–,active: 6.31 µM
COc1ccc2nc(NC(=O)CCc3nc(C4=CCN(C)CC4)no3)sc2c1,inconclusive: 12.7% [signal inhibitor],–
O=[N+]([O-])/C=C/c1ccccc1,inconclusive: -7.21%,–
COc1cccc(-n2c(/C=C\c3ccc(Cl)cc3)nc3ccccc3c2=O)c1,inconclusive: 13.1% [signal inhibitor],–
CN(C)c1ccc(N(C)C)cc1,inactive,–
C[C@H]1CC[C@]2(NC1)O[C@@H]1C[C@@H]3[C@@H]4CC=C5C[C@H](O)CC[C@@]5(C)[C@H]4CC[C@@]3(C)[C@H]1[C@@H]2C,"inactive: 0.517% [at 11.4 µM, scaled: untreated 0%, proteasome inhibitor 100%]",–
C=CC(C)=O,inactive,–
CCC(=O)c1cn(Cc2ccccc2C#N)c2ccccc12,inactive,–
COC(=O)C(c1ccccc1)C1CCCCN1 (stereo not given),inactive,–
CCN(CC)CCCN=Cc1c(O)n(Cc2ccc(F)cc2)c(=O)[nH]c1=O,inactive,–
S=C=Nc1cccc2ccccc12,inactive,–
COc1cc(CCN)ccc1O,inactive,–
CCCN(CCC)[C@@H]1CCc2cccc(O)c2C1,inconclusive: 13.9% [signal activator],–
CN(C)C(=O)Nc1ccc(Cl)cc1,inactive,–
Cc1ccccc1-c1nn2c(=O)cc(CN3CCN(C(=O)COc4ccccc4Cl)CC3)nc2s1,inconclusive: 5.54% [signal inhibitor],–
Cc1ccc(-n2c(/C=C\c3ccc(F)c(F)c3)nc3ccccc3c2=O)c(C)c1,inconclusive: 2.67% [signal inhibitor],–

SMILES,IkBa stabilization activation,Potency
Cc1cc(NC(=O)COC(=O)c2c(C)nn(Cc3ccccc3)c2Cl)no1,inactive,–
C[C@H]1C[C@H](C)C(=O)[C@@H]([C@H](O)CC2CC(=O)NC(=O)C2)C1,inconclusive: 0.867% [signal inhibitor],"inconclusive: 0.501 µM [signal inhibitor, partial curve]"
COc1ccc2c3c1O[C@@H]1C(=O)CC[C@@]4(O)[C@@H](C2)N(CC2CC2)CC[C@]314,inactive,–
Cc1cc(S(=O)(=O)NCC(C)C)ccc1OCC(=O)N1CCN(Cc2ccccc2)CC1,inconclusive: 7.04% [signal inhibitor],–
COc1cccc(/C=C/c2nc3ccccc3c(=O)n2-c2ccc(Cl)cc2)c1OC,inconclusive: 7.5% [signal inhibitor],–
CC(C)C[C@H](NP(=O)(O)O[C@@H]1O[C@@H](C)[C@@H](O)[C@@H](O)[C@H]1O)C(=O)N[C@@H](Cc1c[nH]c2ccccc12)C(=O)O,inactive,–
CN1Cc2ccccc2[C@@H]2c3cccc4[nH]cc(c34)C[C@H]21,inconclusive: 2.97% [signal inhibitor],–
C[C@@]12Cc3cnc(-c4ccccc4)nc3C[C@@H]1CC[C@@H]1[C@H]3CC[C@@](C)(O)[C@]3(C)CC[C@@H]12,"inactive: 1.46% [at 11.4 µM, scaled: untreated 0%, proteasome inhibitor 100%]",–
Cn1c(=O)c2nncnc2n(C)c1=O,inactive,–
COc1ccc(C)cc1NC(=O)c1cccn(Cc2cccc([N+](=O)[O-])c2)c1=O,–,inconclusive: 3.16 µM [signal inhibitor]
C[C@H]1CCCC(=O)CCC/C=C/c2cc(O)cc(O)c2C(=O)O1,inconclusive: 5.16% [signal inhibitor] and inconclusive: 1.8% [signal inhibitor],–
Cc1ccc(-n2c(/C=C/c3cccs3)nc3ccccc3c2=O)cc1C,inconclusive: -1.23% [signal inhibitor],–
CCCCCCN=C(CC)c1c(O)n(CCCC)c(=O)[nH]c1=O,inconclusive: -2.9% [signal inhibitor],–
c1cc(N2CCCC3(CCNCC3)C2)ccn1,"inactive: 3.47% [at 11.4 µM, scaled: untreated 0%, proteasome inhibitor 100%]",–
Cc1ccc(C2(O)CC(C)N(C)CC2C)cc1 (stereo not given),inactive,–
CCOC(=O)c1c(C)n(Cc2ccccc2)c2ccc(OCC(O)CN3C(=O)CNC3=O)cc12 (stereo not given),inconclusive: 0.801% [signal inhibitor],–
Cc1c(C(=O)c2ccc3ccccc3c2)c2cccc3c2n1[C@H](CN1CCOCC1)CO3,inconclusive: 0.369% [signal inhibitor],–
CN(C)P1(N(C)C)=NC(C(F)(F)F)=NC(C(F)(F)F)=N1,inactive,–
CC(C)NC[C@H](O)c1ccc(N)c(C#N)c1,inactive,–
CSc1ccc(CN2CCN(C(=O)COc3ccc(C)cc3)CC2)cc1,inconclusive: 11.9% [signal inhibitor],–
CCCCn1c(O)c(C(CC)=NCCc2ccccc2)c(=O)[nH]c1=O,inconclusive: 5.28% [signal inhibitor],–
Cc1ccc(NC(=[OH+])c2cc3ccccc3cc2O)c(C)c1.Cc1ccc(NC(=[OH+])c2cc3ccccc3cc2O)c(C)c1.[Ni],–,"inconclusive: 3.98 µM [signal inhibitor, partial curve]"
c1ccc2cc3c(cc2c1)-c1cccc2cccc-3c12,inactive,–
C[C@H](N[C@@H](C)CCc1ccccc1)[C@H](O)c1ccc(O)cc1,inactive,–
